From PubChem BioAssay AID463173 (ICCB-Longwood Screening Facility, Harvard Medical School, 2010)
Among all 52,000 compounds or so, about 4,300 (8.3%) were called active. Cut-off read from the data, not from the text of the source: active = survival mostly below about 52% (no sharp cut-off); inactive = mostly above about 56%. This is one part of the list.

What follows are compounds tested on DeltatarO mutant (assay: S. aureus survival, RN4220 and DeltatarO strains – OD600, teichoic acid synthesis inhibitors, primary screen (AID 463173)). Details: S. aureus RN4220 wild type/DeltatarO growth, OD600, 18 h, stronger effect = lower value, screened at 18.75 µg/mL (by protocol).

SMILES	survival
Cc1cccc(NC(=O)CSc2nc(-c3ccco3)nc3cc(=O)[nH]n23)c1	inactive: 80%
COc1cc(NC(=O)c2ccccc2)ccc1NC(=O)c1cc2ccccc2o1	inactive: 55%
Cc1ccc(NC(=O)Cn2nnc(-c3nc(-c4ccncc4)no3)c2N)cc1	inactive: 120%
Cc1ccc(C(=O)O)cc1Nc1nc2ccccc2n2nnnc12	inactive: 82%
CCCOc1ccc(CNC(=O)C(CC)n2nc(C)c3sc4ccccc4c3c2=O)cc1 (configuration not stated)	inactive: 69%
CCOc1ccc2nc(C)cc(Nc3ccccc3OCC)c2c1	inactive: 141%
O=C(OCc1nc(-c2ccccc2)oc1COC(=O)c1ccco1)c1ccco1	inactive: 72%
Nc1c(Cl)ncnc1NCCO	inactive: 97%
Cc1cccc(C)c1NC(=O)Cn1c(=O)n(CC2CCC(C(=O)NCCc3ccccc3)CC2)c(=O)c2ccccc21 (configuration not stated)	inactive: 100%
CCOC(=O)c1noc2ncnc(Nc3ccc(F)cc3F)c12	inactive: 122%
CCOC(=O)C1CCN(C(=O)C2CCN(C3=NS(=O)(=O)C(c4ccc(C)cc4)=C3CC)CC2)CC1	inactive: 115%
CCOC(=O)CSc1nc2c(sc3ccccc32)c(=O)n1CCc1ccccc1	inactive: 60%
O=[N+]([O-])c1cc(-c2nc(-c3ccccc3)no2)ccc1N1CCN(c2ccccc2)CC1	inactive: 77%
Cn1cc(S(=O)(=O)N2CCCCCC2)cc1C(=O)N1CCN(c2cccc(Cl)c2)CC1	inactive: 68%
CCOc1ccc(OC(=O)c2cn(-c3ccc(C)cc3)c(=O)c3ccccc23)cc1	inactive: 78%
COc1ccc(-c2nc3c4ccccc4n(CC(=O)Nc4cc(F)ccc4F)c(=O)n3n2)cc1	inactive: 84%
Cc1ccc(NCCOc2ccccc2)c(C)c1	inactive: 106%
Cc1coc2cc3oc(=O)c(CCC(=O)NCc4ccc(Cl)cc4)c(C)c3cc12	inactive: 69%
COc1ccc(-c2cc(C(F)(F)F)n3nc(C(=O)Nc4cc(Cl)cc(Cl)c4)cc3n2)cc1	inactive: 86%

SMILES	survival
COc1cc(-c2ccno2)ccc1S(=O)(=O)N1CCN(c2ccc(C(C)=O)cc2)CC1	inactive: 76%
CCCCC(=O)Nc1ccccc1C(=O)OCc1cc(=O)n2nc(C3CCCCC3)sc2n1	inactive: 63%
COc1cc(OC)cc(C(=O)Nc2ccccc2-c2nc3ccccc3s2)c1	active: 17%
CN(C)c1ccc(C(CNC(=O)c2ccc(C(C)(C)C)cc2)N2CCOCC2)cc1 (configuration not stated)	inactive: 83%
COc1ccc2[nH]c(C)c(CCNS(=O)(=O)c3cc(F)ccc3OC)c2c1	inactive: 57%
CCCOc1cccc(C(=O)Nc2cccc(NC(=O)c3ccc(C(C)(C)C)cc3)c2)c1	inactive: 76%
C=CCNC(=O)C(C)Sc1nnc2c(n1)[nH]c1ccccc12 (configuration not stated)	inactive: 68%
CN(C1CCCCC1)S(=O)(=O)Cc1ccccc1	inactive: 114%
COc1ccc(CCNC(=O)C2(c3cccs3)CCOCC2)cc1OC	inactive: 86%
CCCCN1C(=O)CN(C2CCCCCC2)C(=O)C1c1ccc(OCCC)c(OC)c1 (configuration not stated)	inactive: 66%
CCOc1ccc(CCNC(=O)c2nnc(Cc3cc(OC)c(OC)c(OC)c3)o2)cc1OCC	inactive: 81%
O=C(CCNc1n[nH]c(=O)[nH]c1=O)N1CCCCC1	inactive: 97%
COc1ccc(N2CCN(S(=O)(=O)CCNC(=O)Cc3ccc(Cl)cc3)CC2)cc1	inactive: 81%
CCOC(=O)C1CCN(C(=O)Cn2nc(C)n3c(cc4cc(F)ccc43)c2=O)CC1	inactive: 91%
COc1cc(C(=O)NCC(c2cccnc2)N2CCc3ccccc32)cc(OC)c1OC (configuration not stated)	active: 44%
Cc1ccccc1Cn1c(=O)n(Cc2ccc(Cl)cc2)c(=O)c2cccnc21	inactive: 82%
COc1cc(Cl)c(C)cc1NC(=O)c1sc2nc3n(c(=O)c2c1C)CCCCC3	inactive: 52%
COc1ccc(OC)c(NC(=O)CSC2=Nc3ccccc3C3=NC(CC(=O)NCc4ccc5c(c4)OCO5)C(=O)N23)c1 (configuration not stated)	inactive: 80%
CCOC(=O)c1c(NC(=O)c2nc(SC(C)C)ncc2Cl)sc2c1CCCC2	active: 56%

SMILES	survival
O=c1cc(N2CCN(c3ccc(F)cc3)CC2)[nH]c(=O)n1-c1ccc(Br)cc1	inactive: 124%
Cn1c(SCc2ccc(C(F)(F)F)cc2)nc2c([nH]c3ccccc32)c1=O	inactive: 88%
Cc1ccc[n+](CC(=O)c2cccs2)c1	inactive: 106%
Cc1ccc2c(C)c(C(=O)N(Cc3ccc(Cl)cc3)C3CCS(=O)(=O)C3)oc2c1 (configuration not stated)	active: 34%
O=C1[C@@H]2CSC(c3ccc(C(F)(F)F)cc3)N2C(=O)N1c1ccccc1 (some centres not stated)	inactive: 81%
CCCNc1c(NC(=O)c2ccc(OCCC)cc2)c(=O)oc2ccccc12	inactive: 78%
O=C1CN(C(=O)c2ccccc2C(F)(F)F)C(c2ccccc2)c2cc(F)ccc2N1 (configuration not stated)	inactive: 72%
COc1cc2c(cc1OC)C(COc1ccc3c(C)cc(=O)oc3c1)N(C(=O)c1ccc(Cl)cc1)CC2 (configuration not stated)	inactive: 73%
Cc1ccc(C(=O)C2=C(O)C(=O)N(CCc3ccccc3)C2c2ccncc2)o1 (configuration not stated)	inactive: 103%
CCN(CC)C(=O)Cn1c(=O)n(Cc2ccc(C(=O)NCc3ccccc3Cl)cc2)c(=O)c2ccccc21	inactive: 115%
COc1cc(C2C(=O)N(C3CCCCC3)CC(=O)N2Cc2ccc(C)cc2)ccc1OC(C)C (configuration not stated)	inactive: 89%
O=C(CSc1nccn1-c1ccc(F)cc1)Nc1ccc(OC(F)(F)F)cc1	inactive: 78%
CCOC(=O)c1c(-c2ccc(Br)cc2)csc1NC(=O)c1ccccc1F	inactive: 60%
CC(C)OC(=O)/C(C#N)=C\c1cccs1	inactive: 104%
CCC1CCCCN1S(=O)(=O)c1ccc(C(=O)Nc2sc3c(c2C(=O)NC)CCC3)cc1 (configuration not stated)	inactive: 78%
CCOCCCN1C(=O)CN(C2CCCCCC2)C(=O)C1c1ccc(OC(C)C)c(OC)c1 (configuration not stated)	inactive: 97%
CN1C(=O)CSC1=Nc1ccc(F)cc1	inactive: 89%
COc1ccc(OCC(=O)OCc2cc(=O)n3cc(C)sc3n2)cc1	active: 6%
CCc1ccccc1NC(=O)c1ccc2c(O)c(S(=O)(=O)c3ccccc3)c(=O)[nH]c2c1	inactive: 92%
